For 56 variants, self-cleavage results are on record in the RNAGym collection of RNA variant scans (doi:10.7554/elife.90254).

Sequences and labels used below:
B1: LINE1-mini (parent)
chain: GGCAGAGCUCAACACAGCGUGGCAAAGUGGCUGUGGCUAGACUGCC

The source gives no read counts; variants with many changes may rest on few reads.

The data set covers variants of B1. The data set can be described thus: self-cleavage, relative activity (ratio to wild type); higher = more cleavage; in vitro, sequencing; the parent is a self-cleaving ribozyme.
Turning to CGUAGAGCUCAACACAGCGUGGCAAACUGGCUGUGGCUAGACUGCC, the self-cleavage stood at 0.02.

Take GCACGAGCUCAACACAGUGUGGCAAAGUGGCUGUCGCUAGACUGCC: the self-cleavage stood at 0.06.

For GGCAGAGCUCAGUACAGCGUGGCAAAGUGGCUGUGGCGAUACUGUC, the self-cleavage came to 0.02.

As for AGCAGAGCUCAACACAGGACGGCAAAGUAGCUGUGGCUAGACUGAC, the self-cleavage came to 0.

In the case of GGCAGAGCUCAACACAUCGUGGACAAGUGGCUGUGGCUAGGCUGCC, the self-cleavage stood at 0.05.

Regarding GGCAGAGCUCGACACAGCGUGGCGAAUUGCCUGUCGCUGGACUGCC, the self-cleavage came to 0.01.

On to GGCAGAGCGCAACACAGCGUGGCAAACUUGCUGUGACUAGACUCCC, for which the self-cleavage amounted to 0.02.

Consider GACAGAGGUCAACACAGCGUGGCACAGUGGCUGUGGCUAGACUGCU, for which the self-cleavage amounted to 0.04.

As to GGCGGAGCUCAACACAGCGGGGCAAAGUGGUCGUGGCUAGACUGCC, the self-cleavage turned out to be 0.04.

Take GGCAGAGCUCAACACAGGGUGGCAAAGUGGCUGUGGCUAGAGUGUC: the self-cleavage was 0.02.

For GGCAACGCUCAACACAGCGUGGCAAAGUGGCGGUGGCUAGACUGCC, the self-cleavage was 0.03.

As to GGCAGAGCUGAGCACAGCGUGGCAAAGUGGCUGUGGCUACUCUGCC, the self-cleavage worked out at 0.01.

GGCCGAGAUCAAUACACCUUGGCAAAGUGGCUGUGGCAAGUCUGCG: the self-cleavage turned out to be 0.09.

As for GGCAGAGCUAAACACAGCGUGCCAAAGUGGCUGUGGCUAGAAUGCC, the self-cleavage stood at 0.05.

As for GGCAUAGUUCAACACAGCGUGGCAAAGUGGCUGUGGCUAGACUGUC, the self-cleavage was determined as 0.49.

Regarding GGCAGAGCUCAACACAGCGUGGCAAAGUGGCUCUGGCUCGACUGCU, the self-cleavage amounted to 0.04.

Take GGCAGAGCUCAACACAGCGUCACAAAGCGGAUGUGGCUAGAGUGCC: the self-cleavage was found to be 0.

Consider GGCAGAGCUCAACACUGCGUGGCAAAGUAGCUGUGGCUAGGCUGCC, for which the self-cleavage was determined as 0.15.

Take GGCAGAGCUCAACAUACCGUGGCAAAGUGGCUGUGGCUAGACUGCA: the self-cleavage stood at 0.05.

On to GGCAGAGCUGAACACAGCGUGGCUAAGUGUCCGUGGCUAGACUGCC, for which the self-cleavage was determined as 0.01.

As for GACAGAGCUCAACACAGCGUGGCUAAGAGGCUGCGGAUAGACUGCC, the self-cleavage came to 0.15.

As for GGCAGAGCUCAACACAGAUUGGCAAAGUGGCUGUGGCUAGAGUGCC, the self-cleavage was 0.01.

As for UGCAGAGCUCAAAACAGCGUGUCAAUGUGGCUGUGGCUAGACUGCC, the self-cleavage stood at 0.22.

Turning to GGCAGAACUCGACACAGCGUGGCAAAGCGGCUGUGGCUAGACUGCC, the self-cleavage came to 0.

GGCAGAGCUCAACACAAAGAUGCAAAGUGGCUGUGGCUAGACUGCC: the self-cleavage was 0.12.

On to GGUAGAGCUCAACAUAGCGCGGCAAAGUGGCUGUGGCUAGACUGCC, for which the self-cleavage was found to be 1.29.

As to GGCAGAGCUCAACACAGCGUGGCAACGUGUCUAUGGCUAGACUGCC, the self-cleavage was found to be 0.12.

For UGCAGAGCUGAACACAGCGUGGAAAAGUGGCUGUGGCUAGACUGCC, the self-cleavage came out at 0.

GGCAGAGCUCACCACAGCGUGACAAAGUGGCUGAGUCUAGACUGCC: the self-cleavage amounted to 0.02.

As for GGCAGAUCUCAACACCGCGUGGCAAAGUGUCACUGGCUAGACUGCC, the self-cleavage amounted to 0.05.

In the case of GGCACAGCUCAACACAGCGUGGCAAAGUGGGUGUGGCUAGACUGGC, the self-cleavage stood at 0.04.

Take GGCAGAGCUCAACAUAGCCUGGCAAACUGGCUGUGGCUAGACUGCC: the self-cleavage was 1.2.

Turning to GGCAGAGCUCAACACAGCGUGACAAAGUGGCUAUGGUUAGGCUGCC, the self-cleavage came out at 0.07.

Consider GGCAGGGCUCAACUCAGCGUGGCAAAGUCGCUGUGGCUAGUUUUCC, for which the self-cleavage was found to be 0.03.

GUCAGAGCUCAACACAGCGUGGCAAAAAGGCUGUGGCUAGAUUGCC: the self-cleavage was 0.02.

As for GGCAGGGCUCAACACAGCGUUGCAAAGUGGCGGUGGCUAGACUGCC, the self-cleavage was determined as 0.05.

In the case of GGCAGAGCUCAACACAGUGAGGCAAAGUGGCUUUGUCUUGACUGCC, the self-cleavage came to 0.01.

In the case of GCCAGAGCUCAACACAGCCUAGUAAAGUGGCUGUGGGUAGACUGCC, the self-cleavage turned out to be 0.01.

With GGCAGAGCACAACACAGCGUUGCAAAGUGGCUGCAGCUAGACUGCC, the self-cleavage came to 0.07.

Regarding UGCAGAGCUCAACACAGAGUGGCAAAGUGUCUGUGGCUCGUCUGCC, the self-cleavage is 0.01.

GGCAGAGCUCAGCACAGCGAGACAAAGUGGCUGUGGCUAGACUGCC: the self-cleavage worked out at 0.01.

Take GGCAGAGCUCCACACAGCGUGGCAACGUGGCUGUGGCUAGACUGGC: the self-cleavage was determined as 0.02.

As for GGCAUAGCCCAACACAGCGUGGCAAAGUGGCUGUGGAAGGACUGCC, the self-cleavage was determined as 0.02.

Consider GGCAGAGCUCAACACAUCGUGGCAAAGUGGCUGUGGCUAGUCCGCC, for which the self-cleavage is 0.04.

For the variant GGCAGAAGUCAACACAGCAUGGCAAAGUGGCUGUCGCUCGACUGCC, the self-cleavage came out at 0.05.

For UGCAGAGCUCAACACAGCGUGGCAAAGUAGCUAUGGCUAGUCUGCC, the self-cleavage came out at 0.03.

As for GGCGAAGCUCAACACAGCGUGGCAAAGUGGCCGUGGCUAGACUGCC, the self-cleavage is 0.07.

Regarding GGCAGAGCUCGACACAGCGUGGCAAAGUGGCUGUUGCUACACUGCC, the self-cleavage is 0.04.

On to GGCAAAGCUCGACACAGCGUGGCAAAGUGGCUGUGGGUAGACUGCC, for which the self-cleavage amounted to 0.01.

As for GGCAGAGCUCAACGGAGCGUGGUAAAGUGGCUGUGGCUCGACUGCC, the self-cleavage was determined as 0.6.

With GGCAGAGCUCCACACAGCGUGGCAAAGUCGCUGUGUCUAGACUGCC, the self-cleavage was determined as 0.01.

As for GCCAGGGCUCAACACAGCGUGGCAAAGUAGCUCUGGCUAGACUGCC, the self-cleavage was 0.03.

Regarding GGCAGAGCACAAGACAGCGUGGUAAAGUGGCUGUGGCUAGACUGCC, the self-cleavage stood at 0.1.

On to GGAAGAACUCAACACAGCGUGGCAAAGUGGCUUUGACUAAAUUGCC, for which the self-cleavage worked out at 0.1.

For GGCAGAGCUCAAGACAGCGUUGCAAAGUGUCUGUGGCUAGACUGCC, the self-cleavage turned out to be 0.04.

For the variant GGCUGAGCUCAACACAGCGUGGCACAGUGGCUGUGGCUGGACUGCA, the self-cleavage was determined as 0.02.
